Laboratory results as given in paper PMC3790000, “The Extended Transmembrane Orai1 N-terminal (ETON) Region Combines Binding Interface and Gate for Orai1 Activation by STIM1*^([image sbox.jpg])^♦” (The Journal of Biological Chemistry, 2013).

Target: T1, YFP-STIM1 233–485 (human, UniProt Q13586-1 in part)
T1 construct: the YFP fluorescence is the read-out of the thermophoresis; also called STIM1 233–485 C-terminal fragment; slightly extended OASF fragment; source: HEK293, transfected, in lysate (supernatant after Nonidet P40 lysis)
Assay: MST; monolith NT.115 (Nanotemper); YFP-STIM1 233–485 (or free YFP) in HEK293 cell lysate kept constant, Orai1 peptide varied, up to 16 dilutions, 5 min incubation, glass capillaries; curve fitted to a one-site binding model
Conditions: one partner purified

Kd: 246 ± 88 µM
B1: Orai1 N-terminal peptide […] (peptide)
peptide: not shown
notes: also called Orai1 NT([…]); Orai1 […]; source: synthetic peptide, bought: peptide 2.0
